Data on four proteins can be found in paper PMC6067006 (Cell reports, 2018).

Sequences and labels used below:
B1: SAMHD1_([…]) D311A (domain or fragment)
chain: not shown
notes: also called D311A protein; source: bacterial expression system, purified (as previously described)
B2: SAMHD1_([…]) D311A/C522S (domain or fragment)
chain: not shown
notes: source: bacterial expression system, purified (as previously described)
B3: SAMHD1_([…]) D311A/C341S (domain or fragment)
chain: not shown
notes: as for B2
B4: SAMHD1_([…]) D311A/C350S (domain or fragment)
chain: not shown
notes: as for B2

This series deals with the molecule itself. The experiment in a line: AUC; sedimentation velocity, tetramerisation; 5 uM SAMHD1 in 50 mM Tris, 50 mM NaCl, 5 mM MgCl2, 1 mM DTT, pH 8, with 10 uM GTP and 50 uM dATP (also run without nucleotides); 45,000 rpm, 20 C.
Consider B1, for which the binding result is listed as “binds”.
The value for B2 was “binds”; that for B3 was “binds”; that for B4 was “binds”.
